Results taken from the supplement of paper PMC6206098.
± gives the uncertainty stated by the source. The sequences are guide strands of siRNAs; only the seed at positions 2 to 7 varies.

Key:
[1] = system: 3LL; assay: cell viability relative to siNT1 control; higher = less toxic; conditions: concentration: 10 nM; 96 h; Mus musculus;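 note: Luminescence-based viability of cells reverse transfected in 384-well plates with lipid-complexed siRNAs built on a non-toxic 19mer backbone whose passenger strand carries 2′-O-methyl groups at positions 1 and 2, triplicates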
[2] = system: HeyA8; assay: cell viability relative to lipid-only control; HeyA8 human ovarian and H460 human lung cancer; M565 mouse liver and 3LL mouse lung cancer; siNT1 is a non-toxic control siRNA; higher = less toxic; conditions: concentration: 10 nM; 96 h; Homo sapiens
[3] = system: H460; assay: as above; conditions: concentration: 10 nM; 96 h; Homo sapiens
[4] = system: M565; assay: as above; conditions: concentration: 10 nM; 96 h; Mus musculus
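Throughout, for cell viability relative to lipid-only control: reverse lipid transfection in 384-well plates, in triplicate, of duplexes on a non-toxic 19mer backbone with passenger strand 2′-O-methylated at positions 1 and 2, luminescence viability read-out.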

Sequence | cell viability [1] | cell viability [2] | cell viability [3] | cell viability [4]
UUUGGAUACAUGUAAACCAAA | 82.9 ± 5% | 98.1 ± 2.2% | 73.4 ± 4.8% | 103 ± 13%
UAUCACCACAUGUAAACCAAA | 38.3 ± 3.3% | 59.5 ± 7.2% | 39.2 ± 1.8% | 47.6 ± 5%
UUUACGGACAUGUAAACCAAA | 96 ± 3.4% | 103 ± 1.8% | 98.5 ± 10% | 90.4 ± 9.4%
UUUCACCACAUGUAAACCAAA | 49.4 ± 4.3% | 48 ± 4.4% | 39.9 ± 1.9% | 60 ± 7%
UACUCUAACAUGUAAACCAAA | 90.5 ± 14% | 97.2 ± 18% | 82 ± 26% | 56.7 ± 13%
UACCUGGACAUGUAAACCAAA | 59 ± 15% | 51.7 ± 5% | 65.6 ± 11% | 56.9 ± 9%
UAAAGCGACAUGUAAACCAAA | 102 ± 7.8% | 100 ± 2.6% | 76 ± 13% | 80.8 ± 5%
UUGGUACACAUGUAAACCAAA | 75.4 ± 4.5% | 39.1 ± 3% | 51 ± 8% | 82.2 ± 13%
UGGUUUAACAUGUAAACCAAA | 100 ± 4.6% | 118 ± 16% | 67.4 ± 9.1% | 80.2 ± 14%
UAAAUGCACAUGUAAACCAAA | 30 ± 7.1% | 31.2 ± 4.9% | 29.7 ± 1.2% | 19.9 ± 3.7%
UGACGAUACAUGUAAACCAAA | 95.1 ± 17% | 36.6 ± 3.9% | 45.8 ± 4.3% | 30 ± 3.9%
UGCUUAGACAUGUAAACCAAA | 66.1 ± 4.8% | 26.9 ± 2.8% | 92.8 ± 19% | 54.6 ± 1.7%
UGUCUUGACAUGUAAACCAAA | 75.1 ± 15% | 48.8 ± 6.9% | 48.8 ± 5.9% | 35 ± 5.6%
UGAAAACACAUGUAAACCAAA | 91.2 ± 18% | 61.6 ± 6% | 80.4 ± 8.9% | 48.2 ± 12%
UAUCAUAACAUGUAAACCAAA | 123 ± 13% | 97.2 ± 2.4% | 28.7 ± 6.1% | 96.7 ± 11%
UGAUGUCACAUGUAAACCAAA | 45.5 ± 11% | 15.7 ± 1.4% | 57.8 ± 13% | 27.6 ± 5.7%
UCUAGACACAUGUAAACCAAA | 91.1 ± 8.2% | 86.7 ± 10% | 57.8 ± 9% | 78.4 ± 16%
UAUCGCGACAUGUAAACCAAA | 117 ± 9.2% | 106 ± 8.5% | 90 ± 4.4% | 96.5 ± 3.7%
UGAAAAAACAUGUAAACCAAA | 100 ± 14% | 97.3 ± 5.1% | 64.1 ± 6.1% | 78.7 ± 8.4%
UAAUGGUACAUGUAAACCAAA | 69.7 ± 6.7% | 55.6 ± 3.4% | 75.1 ± 13% | 14.7 ± 4.1%
UUACCCCACAUGUAAACCAAA | 5.68 ± 1.3% | 52.8 ± 4.8% | 15.3 ± 1.4% | 25 ± 4.9%
UCCCCUAACAUGUAAACCAAA | 108 ± 20% | 97.7 ± 7.7% | 92.3 ± 17% | 67.4 ± 9.3%
UCGCCGCACAUGUAAACCAAA | 21.8 ± 8% | 6.75 ± 2% | 15.6 ± 1.9% | 26.1 ± 3.7%
UAGUAGGACAUGUAAACCAAA | 46.4 ± 9.2% | 23.7 ± 3.9% | 39.6 ± 3.3% | 52.6 ± 4.9%

Sequence | cell viability [1] | cell viability [2] | cell viability [3] | cell viability [4]
UAAGAGAACAUGUAAACCAAA | 83.1 ± 3.9% | 89.8 ± 5.1% | 64.2 ± 4.6% | 66.5 ± 7.3%
UUAAAUAACAUGUAAACCAAA | 83.5 ± 6.5% | 96.7 ± 8.8% | 79.5 ± 22% | 98.5 ± 8.8%
UGUAGUGACAUGUAAACCAAA | 94.2 ± 6.3% | 11.4 ± 3.4% | 68.1 ± 11% | 78.5 ± 4.3%
UACUCCUACAUGUAAACCAAA | 11.1 ± 1.3% | 26.4 ± 1.4% | 22 ± 2.4% | 7.14 ± 1.8%
UGAAUUUACAUGUAAACCAAA | 104 ± 14% | 67.8 ± 2.4% | 62.1 ± 9.4% | 48.8 ± 4.8%
UUCCACUACAUGUAAACCAAA | 79.1 ± 12% | 82.1 ± 3.6% | 51.8 ± 3.5% | 63.3 ± 9.3%
UGAAGAAACAUGUAAACCAAA | 90.9 ± 14% | 81.4 ± 5.4% | 73.9 ± 12% | 35.2 ± 2.8%
UGAUAAAACAUGUAAACCAAA | 94.2 ± 13% | 83.5 ± 8.1% | 71.6 ± 12% | 86.7 ± 10%
UCACUCCACAUGUAAACCAAA | 43.4 ± 2.2% | 27 ± 4.6% | 30 ± 6.8% | 41.5 ± 2.3%
UGCCCGGACAUGUAAACCAAA | 38.3 ± 2.8% | 63.5 ± 3.5% | 65.6 ± 8.1% | 25.4 ± 3%
UACGCAGACAUGUAAACCAAA | 74.8 ± 4.7% | 92.5 ± 11% | 107 ± 4.7% | 79.1 ± 11%
UGUUCAGACAUGUAAACCAAA | 89.2 ± 5% | 66.9 ± 9.9% | 63.2 ± 3.1% | 21.9 ± 5.9%
UUAAGUUACAUGUAAACCAAA | 49.3 ± 3.8% | 68.1 ± 5.2% | 62.6 ± 9.4% | 41.6 ± 12%
UUGUCAAACAUGUAAACCAAA | 74.6 ± 7.3% | 99 ± 14% | 83.3 ± 12% | 88.1 ± 11%
UCUAGGCACAUGUAAACCAAA | 86.3 ± 7.3% | 28.9 ± 0.84% | 35.7 ± 3.3% | 23.3 ± 4%
UUACGAUACAUGUAAACCAAA | 98.1 ± 7.4% | 75.9 ± 8.4% | 79.5 ± 12% | 110 ± 6.2%
UCGGUACACAUGUAAACCAAA | 67.5 ± 6.6% | 60.9 ± 3.8% | 57.8 ± 9.8% | 16.7 ± 1%
UAAGAUCACAUGUAAACCAAA | 77.3 ± 6.9% | 54.2 ± 20% | 63.6 ± 7% | 58.4 ± 11%
UUUUGGUACAUGUAAACCAAA | 84.1 ± 13% | 93.2 ± 7.4% | 57.8 ± 3.7% | 55.7 ± 2%
UUUUGCUACAUGUAAACCAAA | 71.9 ± 5.3% | 65.7 ± 3.5% | 65.6 ± 11% | 96 ± 9.7%
UGGGCUAACAUGUAAACCAAA | 48.5 ± 14% | 5.29 ± 1.5% | 28.2 ± 2% | 30.5 ± 2.1%
UACUCUGACAUGUAAACCAAA | 88.5 ± 4.3% | 94.6 ± 8% | 92 ± 8.6% | 52.7 ± 7.1%
UGAAUCAACAUGUAAACCAAA | 89.6 ± 24% | 58.7 ± 3.8% | 91.1 ± 13% | 41.8 ± 6.5%
UUCACUUACAUGUAAACCAAA | 88.3 ± 19% | 70.3 ± 4.5% | 54.1 ± 4.6% | 93.8 ± 11%
